44 variants from the supplement of paper PMC5895741 can be followed below.

Where only a bound is given, the exact number is not on record here.

First the molecules themselves.
B1: MS2 coat protein; the commonest letter at each place (parent)
chain: MASNFTQFVLVDNGGTGDVTVAPSNFANGVAEWISSNSRSQAYKVTCSVRQSSAQNRKYTIKVEVPKVATQTVGGVELPVAAWRSYLNMELTIPIFATNSDCELIVKAMQGLLKDGNPIPSAIAANSGIY
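Further: counts from Illumina MiSeq reads, cDNA of packaged RNA versus plasmid DNA taken before selection, each replicate independent from library construction onward, expression induced with 0.1% arabinose.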

In this series the parent is B1. In words: apparent fitness score (VLP assembly selection enrichment vs plasmid library) (log10 ratio); higher = better expression / assembly into well-formed VLPs. As to the method: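 SyMAPS: NNK codon saturation mutagenesis of every codon of the MS2 bacteriophage coat protein (EMPIRIC cloning), expressed overnight in E. coli DH10B at 37 °C. Assembled VLPs were selected by ammonium sulfate precipitation plus FPLC size-exclusion chromatography, and the encapsidated RNA was sequenced. Apparent fitness score = log10 of the mean over 3 biological replicates of (percent abundance in the VLP library / percent abundance in the plasmid library). Variants absent after selection were set to 0.0001, i.e. -4.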
In the case of MASNFTQFVLVDNGGTGDVTVAPSNFANGVAEWISSNSRSQAYKVTCSVRQSSAQNRKYTTKVEVPKVATQTVGGVELPVAAWRSYLNMELTIPIFATNSDCELIVKAMQGLLKDGNPIPSAIAANSGIY [I61T], the “apparent fitness score (log10)” value was less than -4. MASNFTQFVLVDNGGTGDVTVAPSNFANGVAEWISSNSRSQAYKVTCSVRQSSAQNRKYTIYVEVPKVATQTVGGVELPVAAWRSYLNMELTIPIFATNSDCELIVKAMQGLLKDGNPIPSAIAANSGIY [K62Y]: the “apparent fitness score (log10)” value is -0.386. Next, MASNFTQFVLVDNGGTGDVTVAPSNFANGVAEWISSLSRSQAYKVTCSVRQSSAQNRKYTIKVEVPKVATQTVGGVELPVAAWRSYLNMELTIPIFATNSDCELIVKAMQGLLKDGNPIPSAIAANSGIY [N37L]: -1.28. Next, MASNFTQFVLVDNGGTGDVTVAPSNFANGVAEWISSNSRSQAYKVTCSVRQSSAQNRKYTIKVEVPKVATQTVGGVELPVAAWRSYLNMELTIPIFATNSDCELIVKAMQGLLKDGNPIPSAIAINSGIY [A125I]: less than -4; MASNFTQFVLVDNGGTGDVTVAPSNFANGVAEWISSNSRSQAYKVTCSVRQSSAQNRKYTIKVEVPKVATQTVGGVELPVAAWRSYLNMELTIPIFATNSDCELIVKAMQGLLKDYNPIPSAIAANSGIY [G116Y]: -1.6. For MASNFTQFVLVDNGGTGDVTVAPSNFANGVAEWISSNSRSQAYKVTCSVRQSSAQNRKYTIKVEVPKVATQTVGGVELPVAAWRSMLNMELTIPIFATNSDCELIVKAMQGLLKDGNPIPSAIAANSGIY [Y86M], the “apparent fitness score (log10)” value is -0.34. Next, MASNFTQFVLVDNGGTGDVTVAPSNFANGVAEWISSNSRSQAYKVTCSVRQSSAQNRKYTIKVEVPKVATQTVGGVELPVAAWRSYLNMELTIPIFASNSDCELIVKAMQGLLKDGNPIPSAIAANSGIY [T98S]: 0.485. With MASNFTQFVLVDNGGTGDVTVAPSNFANGVAEWISSNSRSQAYKVTCSVRQSSAQNRKYTIKVEVPKVATQTVGGVELPVAAWRSYLNMELTIPIFAENSDCELIVKAMQGLLKDGNPIPSAIAANSGIY [T98E] the figure was 0.745; with MASNFTQFVLVDNGGTGDVTVAPSNFANGVAEWISSNSRSQAYKVTCSVRQSSAQNRKYTIKVEVPKVATQTVGGVELPVAAWRSYLAMELTIPIFATNSDCELIVKAMQGLLKDGNPIPSAIAANSGIY [N88A], 0.307; with MASNFTQFVLVDNGGTGDVTVAPSNFANGVAEWISTNSRSQAYKVTCSVRQSSAQNRKYTIKVEVPKVATQTVGGVELPVAAWRSYLNMELTIPIFATNSDCELIVKAMQGLLKDGNPIPSAIAANSGIY [S36T], 0.288. For the variant MASNFTQFVLVDNGGTGDVAVAPSNFANGVAEWISSNSRSQAYKVTCSVRQSSAQNRKYTIKVEVPKVATQTVGGVELPVAAWRSYLNMELTIPIFATNSDCELIVKAMQGLLKDGNPIPSAIAANSGIY [T20A], the “apparent fitness score (log10)” value worked out at 1.23. MASHFTQFVLVDNGGTGDVTVAPSNFANGVAEWISSNSRSQAYKVTCSVRQSSAQNRKYTIKVEVPKVATQTVGGVELPVAAWRSYLNMELTIPIFATNSDCELIVKAMQGLLKDGNPIPSAIAANSGIY [N4H]: the “apparent fitness score (log10)” value is less than -4.

With MASNFTQFVLVDNGGTGDVTVAPSNFANGVAEWISSNSRSQAYCVTCSVRQSSAQNRKYTIKVEVPKVATQTVGGVELPVAAWRSYLNMELTIPIFATNSDCELIVKAMQGLLKDGNPIPSAIAANSGIY [K44C], the “apparent fitness score (log10)” value came out at 0.0309.

Consider MASNFTQFVLVKNGGTGDVTVAPSNFANGVAEWISSNSRSQAYKVTCSVRQSSAQNRKYTIKVEVPKVATQTVGGVELPVAAWRSYLNMELTIPIFATNSDCELIVKAMQGLLKDGNPIPSAIAANSGIY [D12K], for which the “apparent fitness score (log10)” value was -0.848.

With MASNFTQFVLVRNGGTGDVTVAPSNFANGVAEWISSNSRSQAYKVTCSVRQSSAQNRKYTIKVEVPKVATQTVGGVELPVAAWRSYLNMELTIPIFATNSDCELIVKAMQGLLKDGNPIPSAIAANSGIY [D12R], the “apparent fitness score (log10)” value was -0.795.

Regarding MASNFTQFVLVDNGGTGDVTVAPSNFANGVAEWISSNSRSQAVKVTCSVRQSSAQNRKYTIKVEVPKVATQTVGGVELPVAAWRSYLNMELTIPIFATNSDCELIVKAMQGLLKDGNPIPSAIAANSGIY [Y43V], the “apparent fitness score (log10)” value is -0.845.

Take MASNFTQFVLVDNGGTGDVTVAPSNFANGVAEWISSNSRSQAYKVTCSVRQSSAQNRKYTIKVEVPKVATQTVGGVELPVAAWRSYLNMELTIPIFATNSDCELIVKAMQGLLKDGNPIPSAIAANSMIY [G128M]: the “apparent fitness score (log10)” value is -0.327. In the case of MASNFTQFVLVDNGGTGDVTVAPSNFANGVAEWISSNSRSQAYKVTCSVRQSSAQNRKYTIKVEVPKVATQTVGGVELPVAAERSYLNMELTIPIFATNSDCELIVKAMQGLLKDGNPIPSAIAANSGIY [W83E], the “apparent fitness score (log10)” value is -1.8. With MASNFTQFVLVDNGGTGDVTVAPSNFANGVAEWISSNSRSQAYKVTCSVRQSSAQNRKYTIKVEVPKVATQTVGGVELPVAACRSYLNMELTIPIFATNSDCELIVKAMQGLLKDGNPIPSAIAANSGIY [W83C], the “apparent fitness score (log10)” value was -0.474. As to MASNFTQFVLVDNGGTGDVTVAPSSFANGVAEWISSNSRSQAYKVTCSVRQSSAQNRKYTIKVEVPKVATQTVGGVELPVAAWRSYLNMELTIPIFATNSDCELIVKAMQGLLKDGNPIPSAIAANSGIY [N25S], the “apparent fitness score (log10)” value was less than -4.

As for MASNFTQFVLVDNGGTGDVTVAPSNFANGVAEWISSNSRSQAYKVTCSVRQSSAQNRKYTIKVEVPKVATQTVGGVELPVAAWRSYLNMELTIPIFATNADCELIVKAMQGLLKDGNPIPSAIAANSGIY [S100A], the “apparent fitness score (log10)” value amounted to 0.951. With MASNFTQFVLVDNGGTGDVTVAPSNFANGVAEWISSNSRSQAYKVTCSVRQSSAQNRKYTIKVEVPKVATQTVGGVELPVTAWRSYLNMELTIPIFATNSDCELIVKAMQGLLKDGNPIPSAIAANSGIY [A81T] the figure was 0.0977; with MASNFTQFVLVDNGGTGDVTVAPSNFANGVAEWISSNSRSQAYKVTCSVRQSSAQNRKYTIKVEVPKVATQTVGGVELPVAAWRSYLNMELTIPIFATNSDCHLIVKAMQGLLKDGNPIPSAIAANSGIY [E103H], 0.909; with MASNFTQFVLVDNGGTGDVTVAPSNFANGVAEWISSNSRSQAYKVTCSVRQSSAQNRKYTIKVEVPKVATQTVGGVELPVAAWRSYLNMEMTIPIFATNSDCELIVKAMQGLLKDGNPIPSAIAANSGIY [L91M], less than -4. Regarding MASNFTQFVLVDNRGTGDVTVAPSNFANGVAEWISSNSRSQAYKVTCSVRQSSAQNRKYTIKVEVPKVATQTVGGVELPVAAWRSYLNMELTIPIFATNSDCELIVKAMQGLLKDGNPIPSAIAANSGIY [G14R], the “apparent fitness score (log10)” value is -1.1.

For MASNFTQFVLVDNGGTGDVTVAPSNFANGVAEWISSNSRSKAYKVTCSVRQSSAQNRKYTIKVEVPKVATQTVGGVELPVAAWRSYLNMELTIPIFATNSDCELIVKAMQGLLKDGNPIPSAIAANSGIY [Q41K], the “apparent fitness score (log10)” value was -0.902.

For the variant MASNGTQFVLVDNGGTGDVTVAPSNFANGVAEWISSNSRSQAYKVTCSVRQSSAQNRKYTIKVEVPKVATQTVGGVELPVAAWRSYLNMELTIPIFATNSDCELIVKAMQGLLKDGNPIPSAIAANSGIY [F5G], the “apparent fitness score (log10)” value is -0.774. Next, MASNLTQFVLVDNGGTGDVTVAPSNFANGVAEWISSNSRSQAYKVTCSVRQSSAQNRKYTIKVEVPKVATQTVGGVELPVAAWRSYLNMELTIPIFATNSDCELIVKAMQGLLKDGNPIPSAIAANSGIY [F5L]: 0.205. Turning to MASNFTQFVLVDNGGTGDVTVAPSNFANGVAEWISSNSRSQAYKVTCSVRQSSAQNRKYTIKVEVPKVADQTVGGVELPVAAWRSYLNMELTIPIFATNSDCELIVKAMQGLLKDGNPIPSAIAANSGIY [T70D], the “apparent fitness score (log10)” value was determined as 0.0742.

For MASNFTQFVLVDNGGTGDVTVAPSNFANGVAEWISSNSRSQAYKVTCSVRQSSAQNRKYTIKVEVPKVATQTNGGVELPVAAWRSYLNMELTIPIFATNSDCELIVKAMQGLLKDGNPIPSAIAANSGIY [V73N], the “apparent fitness score (log10)” value came out at 0.19. With MASNFTQFVLVDNGGTGDVTVAPSNFANGVAEWISSNSRSQAYKVTCSVRQSSAQNRKYTIKVEVPKVATQTCGGVELPVAAWRSYLNMELTIPIFATNSDCELIVKAMQGLLKDGNPIPSAIAANSGIY [V73C], the “apparent fitness score (log10)” value stood at 0.623. Next, MASNFTQFVLVDNGGTGDVTVAPSNFANGVAEWISSNSRSQAYKVTCSVRQSSAQNRKYTIKVLVPKVATQTVGGVELPVAAWRSYLNMELTIPIFATNSDCELIVKAMQGLLKDGNPIPSAIAANSGIY [E64L]: -0.566. In the case of MASNFTQFVLVDNGGTGDVTVCPSNFANGVAEWISSNSRSQAYKVTCSVRQSSAQNRKYTIKVEVPKVATQTVGGVELPVAAWRSYLNMELTIPIFATNSDCELIVKAMQGLLKDGNPIPSAIAANSGIY [A22C], the “apparent fitness score (log10)” value was found to be 0.0168. As for MASNFTQFVLVDNGGDGDVTVAPSNFANGVAEWISSNSRSQAYKVTCSVRQSSAQNRKYTIKVEVPKVATQTVGGVELPVAAWRSYLNMELTIPIFATNSDCELIVKAMQGLLKDGNPIPSAIAANSGIY [T16D], the “apparent fitness score (log10)” value worked out at 0.367. With MASNFTQFVNVDNGGTGDVTVAPSNFANGVAEWISSNSRSQAYKVTCSVRQSSAQNRKYTIKVEVPKVATQTVGGVELPVAAWRSYLNMELTIPIFATNSDCELIVKAMQGLLKDGNPIPSAIAANSGIY [L10N] the figure was -1.5. With MASNFTQFVLVDNGGTGDVTVAPSNFANGVAEWIYSNSRSQAYKVTCSVRQSSAQNRKYTIKVEVPKVATQTVGGVELPVAAWRSYLNMELTIPIFATNSDCELIVKAMQGLLKDGNPIPSAIAANSGIY [S35Y] the figure was less than -4; with MASNFTQFVLVDNGGTGDVTVAPSNFANGVAEWISSNSRSQAYKVTCSVRQSSAQNRKYTIKVEVPKVATQTVGGVELPVAAWRSYLNMELTIPIFATNSTCELIVKAMQGLLKDGNPIPSAIAANSGIY [D101T], less than -4; with MASNFTQFVLVDNGGTGDVTVAPSNFANGVAEWISSNSRSQAYKVTCSVRQSSAQNRKYTIKVEVPKVATQTVTGVELPVAAWRSYLNMELTIPIFATNSDCELIVKAMQGLLKDGNPIPSAIAANSGIY [G74T], 0.623. As to MASNFTQFVLVDNGGTGDVTVALSNFANGVAEWISSNSRSQAYKVTCSVRQSSAQNRKYTIKVEVPKVATQTVGGVELPVAAWRSYLNMELTIPIFATNSDCELIVKAMQGLLKDGNPIPSAIAANSGIY [P23L], the “apparent fitness score (log10)” value is -1.31. With MASNFTQFVLVDNGGTGDVTVAPSNFANGVAEWISSNSRSQAYKVTCSVRQSSAQNRKYTIKVEVPKVATQTVGGVELPVAAWRSYLNMELTIPIFATNSDCELIQKAMQGLLKDGNPIPSAIAANSGIY [V106Q] the figure was less than -4; with MASNFTQFVLVDNGGTGDVTVAPSNFANGVAEWISSNSRSQAYKVTCSVRQSSAQNRKYTIKVEVPKVATQTVGGVEVPVAAWRSYLNMELTIPIFATNSDCELIVKAMQGLLKDGNPIPSAIAANSGIY [L78V], -1.18. Take MASNFTQFVLVDNGGTGDVTVAPSNFANGVAEWISSNSRSQAYKNTCSVRQSSAQNRKYTIKVEVPKVATQTVGGVELPVAAWRSYLNMELTIPIFATNSDCELIVKAMQGLLKDGNPIPSAIAANSGIY [V45N]: the “apparent fitness score (log10)” value was less than -4. Next, MASNFTQFVLVDNGGTGDVTVAPSNFANGVAEWISSNSRSQAYKVTCSVRQSSAQNRKYTIKVEVPKVATQTVGGVELPVAAWCSYLNMELTIPIFATNSDCELIVKAMQGLLKDGNPIPSAIAANSGIY [R84C]: 0.271; MASNFTQFTLVDNGGTGDVTVAPSNFANGVAEWISSNSRSQAYKVTCSVRQSSAQNRKYTIKVEVPKVATQTVGGVELPVAAWRSYLNMELTIPIFATNSDCELIVKAMQGLLKDGNPIPSAIAANSGIY [V9T]: 0.645.
